This is one part of the list. Repeats are few or missing, and single values can be far off.
Key:
Assay in all cases: cell count relative to DMSO control; melanoma cells; higher = more viable cells
Details in all cases: library dose: standard library concentration; 72 h
SkMel28 = system: SkMel28
SkMel2 = system: SkMel2
SkMel30 = system: SkMel30
SkMel5 = system: SkMel5
UACC257 = system: UACC257
UACC62 = system: UACC62
WM115 = system: WM115
WM1716 = system: WM1716
WM3526 = system: WM3526
WM1745 = system: WM1745
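Note: cells treated in 1,536-well plates, then fixed and DAPI-stained, with nuclei counted from automated high-throughput microscope images.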

Row | SMILES | cell count (SkMel28) | cell count (SkMel2) | cell count (SkMel30) | cell count (SkMel5) | cell count (UACC257) | cell count (UACC62) | cell count (WM115) | cell count (WM1716) | cell count (WM3526) | cell count (WM1745)
1 | Cc1ccc(Nc2nccc(N(C)c3ccc4c(C)n(C)nc4c3)n2)cc1S(N)(=O)=O [Pazopanib] + COc1ccc(COc2ccc(Cc3cnc(N)nc3N)cc2OC)cc1 [GW2580] (first compound 2 µM, partner dose 5 µM) | 76.7% | 90.9% | 83.7% | 57.3% | 77.7% | 81.8% | 79.8% | 79.8% | 69.6% | –
2 | O=C(/C=C/c1cccnc1)NCCCCC1CCN(C(=O)c2ccccc2)CC1 + c1cc(-c2cnn3cc(-c4ccc(OCCN5CCCCC5)cc4)cnc23)ccn1 [Dorsomorphin] (first compound 0.05 µM, partner dose 2 µM) | 109% | 26.3% | 92% | 74.7% | 76.8% | 73.8% | 74.7% | 70% | 86.8% | –
3 | CC1(C)CCC(c2ccc(Cl)cc2)=C(CN2CCN(c3ccc(C(=O)NS(=O)(=O)c4ccc(N[C@H](CCN5CCOCC5)CSc5ccccc5)c(S(=O)(=O)C(F)(F)F)c4)cc3)CC2)C1 + COC(=O)c1sccc1S(=O)(=O)Nc1ccc(Nc2ccccc2)cc1OC [GSK0660] (first compound 2 µM, partner dose 5 µM) | 76.5% | 75.6% | 75.4% | 87.9% | 34.2% | 100% | 95.2% | 65.8% | 84.6% | –
4 | CC1(C)CCC(c2ccc(Cl)cc2)=C(CN2CCN(c3ccc(C(=O)NS(=O)(=O)c4ccc(N[C@H](CCN5CCOCC5)CSc5ccccc5)c(S(=O)(=O)C(F)(F)F)c4)cc3)CC2)C1 + CCN(CC)CCCCNc1ncc2cc(-c3cc(OC)cc(OC)c3)c(NC(=O)NC(C)(C)C)nc2n1 [PD173074] (first compound 2 µM, partner dose 0.5 µM) | 89.8% | 73.6% | 63% | 91.5% | 42% | 69.8% | 80.4% | 68.5% | 79.4% | –
5 | Cc1ccc(Nc2nccc(N(C)c3ccc4c(C)n(C)nc4c3)n2)cc1S(N)(=O)=O [Pazopanib] + COc1cc(N2CCC(N3CCN(C)CC3)CC2)ccc1Nc1ncc(Cl)c(Nc2ccccc2S(=O)(=O)C(C)C)n1 [NVP-TAE684] (first compound 2 µM, partner dose 0.4 µM) | 71.4% | 75.5% | 101% | 57.3% | 80.1% | 65.3% | 79.8% | 71.7% | 64.7% | –
6 | Cc1ccc(Nc2nccc(N(C)c3ccc4c(C)n(C)nc4c3)n2)cc1S(N)(=O)=O [Pazopanib] + O=C(Nc1ccccc1)c1cc([N+](=O)[O-])ccc1Cl [GW9662] (first compound 2 µM, partner dose 10 µM) | 63.8% | 95.5% | 90.8% | 88.9% | 65.1% | 57.4% | 80.3% | 89.6% | 86.3% | –
7 | Cc1ccc(Nc2nccc(N(C)c3ccc4c(C)n(C)nc4c3)n2)cc1S(N)(=O)=O [Pazopanib] + COc1ccc2c(c1)CCC1C2CCC2(C)C(NCCCCCCN3C(=O)C=CC3=O)CCC12 [U73122] (first compound 2 µM, partner dose 2 µM) | 110% | 101% | 95.7% | 82.7% | 86.5% | 73.6% | 115% | 69.7% | 81.6% | –
8 | O=C(/C=C/c1cccnc1)NCCCCC1CCN(C(=O)c2ccccc2)CC1 + Oc1nc(-c2ccc(C(F)(F)F)cc2)nc2c1CSCC2 [XAV939] (first compound 0.05 µM, partner dose 10 µM) | 52.5% | 68% | 108% | 72.1% | 81.9% | 61.6% | 90% | 59.2% | 103% | –
9 | CC1(C)CCC(c2ccc(Cl)cc2)=C(CN2CCN(c3ccc(C(=O)NS(=O)(=O)c4ccc(N[C@H](CCN5CCOCC5)CSc5ccccc5)c(S(=O)(=O)C(F)(F)F)c4)cc3)CC2)C1 + CCCCCCCCc1ccc(CCC(N)(CO)CO)cc1 [fingolimod] (first compound 2 µM, partner dose 10 µM) | – | 0.127% | 5.17% | 33.9% | 39.8% | 24.1% | 13.2% | 15.6% | 15.2% | 2.74%
10 | CC1(C)CCC(c2ccc(Cl)cc2)=C(CN2CCN(c3ccc(C(=O)NS(=O)(=O)c4ccc(N[C@H](CCN5CCOCC5)CSc5ccccc5)c(S(=O)(=O)C(F)(F)F)c4)cc3)CC2)C1 + COc1ccc(COc2ccc(Cc3cnc(N)nc3N)cc2OC)cc1 [GW2580] (first compound 2 µM, partner dose 5 µM) | 76% | 79.8% | 56.3% | 93.3% | 40.9% | 73.4% | 76.3% | 61.1% | 84.9% | –
11 | Cc1ccc(Nc2nccc(N(C)c3ccc4c(C)n(C)nc4c3)n2)cc1S(N)(=O)=O [Pazopanib] + Oc1cc(-c2nc(-c3ccccc3)[nH]c2-c2ccncc2)ccc1Cl [L779450] (first compound 2 µM, partner dose 1 µM) | 44.2% | 24.4% | 87% | 55.1% | 94.6% | 43.9% | 60.8% | 68.1% | 57.2% | –
12 | CC1(C)CCC(c2ccc(Cl)cc2)=C(CN2CCN(c3ccc(C(=O)NS(=O)(=O)c4ccc(N[C@H](CCN5CCOCC5)CSc5ccccc5)c(S(=O)(=O)C(F)(F)F)c4)cc3)CC2)C1 + CCc1ccc(CCOc2ccc(CC3SC(=O)NC3=O)cc2)nc1 [pioglitazone] (first compound 2 µM, partner dose 10 µM) | 79.3% | 97% | 61.7% | 86% | 35.3% | 63.7% | 84.3% | 69% | 99.7% | –
13 | Cc1ccc(Nc2nccc(N(C)c3ccc4c(C)n(C)nc4c3)n2)cc1S(N)(=O)=O [Pazopanib] + O=c1cc(-c2cccc3c2Sc2ccccc2S3)oc(N2CCOCC2)c1 [KU55933] (first compound 2 µM, partner dose 5 µM) | 94.4% | 108% | 99.5% | 86.8% | 73.6% | 85.7% | 70% | 76.9% | 77% | –
14 | O=C(/C=C/c1cccnc1)NCCCCC1CCN(C(=O)c2ccccc2)CC1 + CC(C)CCN1c2nc(Nc3cc(F)c(O)c(F)c3)ncc2N(C)C(=O)C1C [BID1870] (first compound 0.05 µM, partner dose 1 µM) | 56.6% | 26.2% | 85.7% | 65.4% | 89% | 73.9% | 83% | 75.3% | 74.9% | –
15 | CC1(C)CCC(c2ccc(Cl)cc2)=C(CN2CCN(c3ccc(C(=O)NS(=O)(=O)c4ccc(N[C@H](CCN5CCOCC5)CSc5ccccc5)c(S(=O)(=O)C(F)(F)F)c4)cc3)CC2)C1 + Nc1nc(F)nc2c1ncn2[C@@H]1O[C@H](CO)[C@@H](O)[C@@H]1O [fludarabine] (first compound 2 µM, partner dose 1 µM) | – | 0.3% | 9.44% | 31.1% | 23.7% | 68.5% | 72.8% | 54.5% | 11.1% | 4.38%
16 | O=C(/C=C/c1cccnc1)NCCCCC1CCN(C(=O)c2ccccc2)CC1 + O=C1NC(=O)/C(=C/c2ccc(-c3ccc(F)cc3O)o2)S1 [AS252424] (first compound 0.05 µM, partner dose 5 µM) | 94.1% | 14.7% | 126% | 79% | 95.7% | 103% | 97.1% | 74.9% | 99.7% | –
17 | CC1(C)CCC(c2ccc(Cl)cc2)=C(CN2CCN(c3ccc(C(=O)NS(=O)(=O)c4ccc(N[C@H](CCN5CCOCC5)CSc5ccccc5)c(S(=O)(=O)C(F)(F)F)c4)cc3)CC2)C1 + COc1ccc2c(c1)CCC1C2CCC2(C)C(NCCCCCCN3C(=O)C=CC3=O)CCC12 [U73122] (first compound 2 µM, partner dose 2 µM) | 73.2% | – | 49.7% | 73.5% | 32.9% | 53.5% | 49.4% | 35.3% | 81.6% | –
18 | Cc1ccc(Nc2nccc(N(C)c3ccc4c(C)n(C)nc4c3)n2)cc1S(N)(=O)=O [Pazopanib] + c1cc(-c2cnn3cc(-c4ccc(OCCN5CCCCC5)cc4)cnc23)ccn1 [Dorsomorphin] (first compound 2 µM, partner dose 2 µM) | 67.1% | 90.2% | 67.5% | 50.4% | 76.6% | 41.8% | 57.6% | 69.7% | 75.4% | –

Source: the supplement of paper PMC4604168 (melanoma cell lines)
